According to the supplement of paper PMC12217912:
This is one part of the list. The full chains were built here from the parent and the listed change. Values near 0.05 are background.

B1: TEV protease; numbered along this chain (parent)
chain: MGESLFKGPRDYNPISSSICHLTNESDGHTTSLYGIGFGPFIITNKHLFRRNNGTLVVQSLHGVFKVKDTTTLQQHLVDGRDMIIIRMPKDFPPFPQKLKFREPQREERICLVTTNFQTKSMSSMVSDTSCTFPSGDGIFWKHWIQTKDGQCGSPLVSTRDGFIVGIHSASNFTNTNNYFTSVPKNFMELLTNQEAQQWVSGWRLNADSVLWGGHKVFMVKPEEPFQPVKEATQL

Variants of: B1
Assay: raw area under fraction-flipped curve 0-4 h after induction (AUC4h, not background-subtracted), DNA-recorder readout of cleavage of the substrate (dimensionless); higher = more cleavage of the substrate by the protease variant
Conditions: temperature: 34 °C; time window: 0-4 h after rhamnose induction
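Further: Bxb1 expression induced with 0.2% (w/v) L-rhamnose at OD600 near 0.5, cultures sampled hourly, flipped fraction per protease–substrate barcode pair counted by paired-end Illumina sequencing.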

Row | Variant | area with substrate ENLYEQS | area with substrate ENLYHQS | area with substrate ENLYIQS | area with substrate ENLYKQS | area with substrate ENLYMQS | area with substrate ENLYNQS | area with substrate ENLYPQS | area with substrate ENLYSQS | area with substrate ENLYVQS | area with substrate ENLYWQS | area with substrate ENLYLQS | area with substrate ENLYQQS | area with substrate ENLYRQS | area with substrate ENLYTQS | area with substrate ENLYYQS | area with substrate ENLYGQS
1 | MGESLFKGPRDYNPISSSICHLTNESDGHTTKLYGIGFGPFIITNKHLFRRNNGTLVVQSLHGVFKVKDTTTLQQHLVDGRDMIIIRMPKDFPPFPQKLKFREPQREERICLVTTNFQTKSMSSMVSDTSCTFPSGDGIFWKHWIQTKDGQCGSPLVSTRDGFIVGIHSASNFTNTNNYFTSVPKNFMELLTNQEAQQWVSGWRLNADSVLWGGHKVFMVKPEEPFQPVKEATQL [S32K] | 0.0693 | 0.052 | 0.105 | 0.0851 | 0.0912 | 0.0653 | 0.0772 | 0.0917 | 0.0597 | 0.0783 |  |  |  |  |  | 
2 | MGESLFKGPRDYNPISSSICHLTNESDGHTTSLYGIGFGPFIITNKHLFRRNNGTLVVQSLHGVFKVKDTTTLQQHLVDGRDFIIIRMPKDFPPFPQKLKFREPQREERICLVTTNFQTKSMSSMVSDTSCTFPSGDGIFWKHWIQTKDGQCGSPLVSTRDGFIVGIHSASNFTNTNNYFTSVPKNFMELLTNQEAQQWVSGWRLNADSVLWGGHKVFMVKPEEPFQPVKEATQL [M83F] | 0.0516 |  |  | 0.0764 | 0.0712 | 0.0654 | 0.0727 | 0.0598 |  | 0.0608 |  |  |  |  |  | 
3 | MGESLFKGPRDYNPISSSICHLTNESDGHTTSLYGIGFGPFIITNKHLFRRNNGTLVVQSLHGVFKVKDTTTLQQHLVDGRDMIIIRMPKDFPPFPQKLKFREPQREERICLVTTNFQTKSMSSMVSDTSCTFPSGDGIFWKHWIQTKDGQCGSPLVSTRDGFIVGIRSASNFTNTNNYFTSVPKNFMELLTNQEAQQWVSGWRLNADSVLWGGHKVFMVKPEEPFQPVKEATQL [H168R] | 0.0678 | 0.063 | 0.0685 | 0.0668 | 0.0551 | 0.0644 | 0.0493 |  | 0.0624 | 0.0651 | 0.0546 | 0.0267 | 0.0462 | 0.0623 | 0.0778 | 
4 | MGESLFKGPRDYNPISSSICHLTNESDGHTTSLYGIGFGPFIITNKHLFRRNNGTLVVQSLHGVFKVKDTTTLQQHLVDGRDMIIIRMPKDFPPFPQKLKFREPQREERICLVTTNFQTKSMSSMVSDTSCTFPSGDGIFWKHWIQTKDGQCGSPLVSTRDGFIVGIHSASNFTNTNNYFTSVPKNFMELLTNQEAQQWVSGWRLNADSVLWGGHKVFMVKPEIPFQPVKEATQL [E224I] | 0.0597 | 0.0593 |  | 0.0418 | 0.0838 | 0.0779 |  |  |  |  | 0.0664 | 0.0712 | 0.0545 | 0.0807 |  | 0.0664
5 | MGESLFKGPRDYNPISSSICHLTNESDGHTTSLYGIGFGPFIITNKHLFRRNNGTLVVQSLHGVFKVKDTTTLQQHLVDGRDMIIIRMPKDFPPFPQKLKFREPQREERICLVTTNFQTKSMSSMVSDTSCTFPSGDGIFWKHWIQTKDGQCGSPLVSTRDGFIVGIHSASNFLNTNNYFTSVPKNFMELLTNQEAQQWVSGWRLNADSVLWGGHKVFMVKPEEPFQPVKEATQL [T174L] | 0.0656 | 0.0756 |  | 0.109 | 0.0629 |  | 0.111 | 0.0689 | 0.0977 | 0.0845 |  | 0.0614 |  |  |  | 
6 | MGESLFKIPRDYNPISSSICHLTNESDGHTTSLYGIGFGPFIITNKHLFRRNNGTLVVQSLHGVFKVKDTTTLQQHLVDGRDMIIIRMPKDFPPFPQKLKFREPQREERICLVTTNFQTKSMSSMVSDTSCTFPSGDGIFWKHWIQTKDGQCGSPLVSTRDGFIVGIHSASNFTNTNNYFTSVPKNFMELLTNQEAQQWVSGWRLNADSVLWGGHKVFMVKPEEPFQPVKEATQL [G8I] | 0.0737 |  |  | 0.0601 | 0.083 | 0.0744 |  | 0.0845 |  |  |  |  |  |  |  | 
7 | MGESLFKGPRDYNPISSSICHLTNESDGHTTSLYGIGFGPFIITNKHLFRRNNGTLVVQSLHGVFKVKDTTTLQQHLVDGRDMIIIRMPKDFPPFPQKLKFREPQREERICLVTTNFQTKSMSSMVSDTSCTFPSGDGIFWKHWIQTKDGQCGSPLVSCRDGFIVGIHSASNFTNTNNYFTSVPKNFMELLTNQEAQQWVSGWRLNADSVLWGGHKVFMVKPEEPFQPVKEATQL [T159C] | 0.0275 |  |  |  |  | 0.0712 |  |  |  |  |  |  |  |  |  | 0.0598
8 | MGESLFKGPRDYNPISSSICHLTNESDGHTTSLYGIGFGPFIITNKHLFRRNNGTLVVQSLHGVFKVKDTTTLQQHLVDGRDMIIIRMPKDFPPFPQKLKFREPQREERICLVTTNFQTKSMSSMVSDTSCTFPSGDGIFWKHWIQTKDGQCGSPLVSTRDGFIVGIHSASNFTNTNNYFTSVPKNFMKLLTNQEAQQWVSGWRLNADSVLWGGHKVFMVKPEEPFQPVKEATQL [E189K] | 0.0664 | 0.0686 |  |  | 0.0625 |  |  |  |  |  |  | 0.0504 | 0.0628 | 0.0832 | 0.0449 | 
9 | MGESLFKGPRDYNPISSSICHLTNESDGHTTSLYGIGFGPFIITNKHLFRRNNGTLVVQSLHGVFKVKDTTELQQHLVDGRDMIIIRMPKDFPPFPQKLKFREPQREERICLVTTNFQTKSMSSMVSDTSCTFPSGDGIFWKHWIQTKDGQCGSPLVSTRDGFIVGIHSASNFTNTNNYFTSVPKNFMELLTNQEAQQWVSGWRLNADSVLWGGHKVFMVKPEEPFQPVKEATQL [T72E] | 0.0806 | 0.0599 |  |  |  |  |  |  |  |  | 0.0922 | 0.0645 |  |  |  | 
10 | MGESLFKGPRDYNPISSSICHLTNESDGHTTSLYGIGFGPFIITNKHLFRRNNGTLVVQSLHGVFKVKDTTTLQQHLVDGRDMIIIRMPKDFPPFPQKLKFREPQREERICLVTTNFQTKSMSSMVSDTSCTFPSADGIFWKHWIQTKDGQCGSPLVSTRDGFIVGIHSASNFTNTNNYFTSVPKNFMELLTNQEAQQWVSGWRLNADSVLWGGHKVFMVKPEEPFQPVKEATQL [G136A] | 0.068 | 0.0643 | 0.146 | 0.0544 |  |  | 0.0579 |  | 0.125 | 0.0685 | 0.0754 | 0.061 |  | 0.0498 | 0.0628 | 0.0655
